Several values for one entry are separate records, joined by “and”; a condition that tells them apart may be missing. Identical values can stand only once. Further values from the same series stand in other lists. Inconclusive results and toxic doses are left out.
System: P388 leukemia ip, CD2F1 mice, survival T/C
Experiment: NCI In Vivo Anticancer Drug Screen. Data for tumor model P388 Leukemia (intraperitoneal) in CD2F1 (CDF1) mice
Conditions: endpoint: median survival time, schedule: Q04DX003 (ip), vehicle: water, higher = longer survival
Description: The antitumor activity of compounds was measured in mice bearing transplantable tumors. Survival or tumor size were measured and the results are expressed as the measurement made in the treated group (T) divided by the measurement made in the vehicle treated control group (C). The tumor model used in this assay is P388 Leukemia (intraperitoneal) in CD2F1 (CDF1) mice

## COc1cccc2c1C(=O)c1c(O)c3c(c(O)c1C2=O)CC(O)(C(C)=O)CC3OC1CC(N)C(O)C(C)O1 (stereo not drawn)
dose: 0.38 mg/kg/injection
  T/C: 118 % of control
dose: 0.75 mg/kg/injection
  T/C: 118 % of control and 123 % of control
dose: 1.5 mg/kg/injection
  T/C: 121 % of control and 117 % of control and 120 % of control
dose: 3.13 mg/kg/injection
  T/C: 91 % of control and 111 % of control and 108 % of control
dose: 6.0 mg/kg/injection
  T/C: 118 % of control
dose: 6.25 mg/kg/injection
  T/C: 110 % of control and 124 % of control and 112 % of control
dose: 12.0 mg/kg/injection
  T/C: 88 % of control and 118 % of control
dose: 12.5 mg/kg/injection
  T/C: 110 % of control and 120 % of control and 112 % of control
dose: 24.0 mg/kg/injection
  T/C: 90 % of control
dose: 25.0 mg/kg/injection
  T/C: 115 % of control and 110 % of control
dose: 50.0 mg/kg/injection
  T/C: 110 % of control and 102 % of control
dose: 175.0 mg/kg/injection
  T/C: 163 % of control
dose: 350.0 mg/kg/injection
  T/C: 94 % of control
